According to PubChem BioAssay AID602310 (National Center for Advancing Translational Sciences (NCATS), 2012):
About 310 (0.076%) of roughly 410,000 compounds were called active. The inconclusive results got no clear call from the source; some entries with a clear call stand among them for comparison. The call rests on the fitted dose curve; in most records, active means well fitted curve in the direction sought with a large enough effect; inconclusive means small, poorly fitted or top-dose-only effect; inactive means flat fitted curve, though single readings scatter. Where the call is inconclusive, the potency comes from a doubtful curve fit.

molecular target: DNA dC->dU-editing enzyme APOBEC-3G (Homo sapiens) (UniProt Q9HC16); assay: qHTS for Inhibitors of Vif-A3G Interactions: qHTS; conditions: HeLa A3G-eYFP + Vif (tagged APOBEC3G with the HIV-1 protein that degrades it), YFP fluorescence, overnight; series mostly up to 46.1 µM; further: nearly all actives have a fitted effect of over 60% in size
Chain of UniProt Q9HC16 (Q9HC16 whole entry, looked up): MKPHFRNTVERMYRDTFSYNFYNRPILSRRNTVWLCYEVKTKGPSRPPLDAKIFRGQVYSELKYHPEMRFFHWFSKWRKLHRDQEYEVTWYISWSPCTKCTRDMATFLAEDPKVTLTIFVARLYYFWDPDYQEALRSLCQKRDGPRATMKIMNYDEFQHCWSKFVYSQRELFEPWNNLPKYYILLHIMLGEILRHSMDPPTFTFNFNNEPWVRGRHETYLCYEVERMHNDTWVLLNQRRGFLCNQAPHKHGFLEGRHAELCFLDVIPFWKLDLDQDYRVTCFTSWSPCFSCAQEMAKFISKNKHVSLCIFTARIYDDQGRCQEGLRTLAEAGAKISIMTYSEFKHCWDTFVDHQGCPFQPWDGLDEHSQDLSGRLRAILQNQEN
How it was run: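 Read-out is eYFP fluorescence (Ex 488/Em 500-530) from Vif-expressing HeLa A3G-eYFP cells; more signal means A3G escaped Vif-mediated degradation. Cells plated overnight, compound pinned in, incubated overnight at 37 deg C.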
Potency means the concentration at half of the fitted maximal effect; tags describe the fitted curve by direction and shape.

Question: `C=CCNc1nc(-c2ccccc2)c(C(=O)OCC)cc1C#N` was tested. Which Potency did it give?
Answer: Its Potency is inconclusive: 7.08 µM [inhibitor, partial curve, poor fit].

Question: How did the Potency turn out when `O=C(/C=C/c1ccc2c(c1)OCO2)c1ccccn1` was run?
Answer: The Potency was inconclusive: 35.5 µM [inhibitor, single point].

Question: Which Potency does the source give for `CCCOc1ccc2ccccc2c1/C=N/n1c(C)nnc1-n1nc(C)cc1C` here?
Answer: Its Potency is inconclusive: 2 µM [inhibitor, full curve, poor fit].

Question: Which Potency does the source give for `COc1cccc(C(=O)Nc2cccc(-c3cn4c(C)csc4n3)c2)c1OC` here?
Answer: The Potency was “inactive”.

Question: Which Potency does the source give for `O=C(NC(=S)Nc1cccc(S(=O)(=O)NC2=NCCC2)c1)c1cc(-c2ccco2)nc2ccccc12` here?
Answer: The Potency was inconclusive: 2.51 µM [inhibitor, full curve, poor fit].

Question: Which Potency does the source give for `Cc1ccc(NC(=O)CSc2nc(-c3ccco3)cc(C(F)(F)F)n2)cc1` here?
Answer: Its Potency is inconclusive: 0.562 µM [inhibitor, full curve, poor fit].

Question: Which Potency does the source give for `N#Cc1c(-c2ccccc2)nc(SCc2cccc(Cl)c2)[nH]c1=O` here?
Answer: The Potency was “inactive”.

Question: `Cc1cccn2c(=O)c3cc(C(=O)NC(C)c4ccccc4)c(=N)n(CCCO)c3nc12` (configuration not stated) was tested. Which Potency did it give?
Answer: Its Potency is “inactive”.

Question: For `CCCCNc1nc(Nc2ccc(C)c(Cl)c2)c2cnn(C)c2n1`, which Potency is on record?
Answer: Its Potency is “inactive”.

Question: With `COc1cc(C(=O)N/N=C(\C)c2ccccn2)cc(OC)c1OC` as the molecule, how does the Potency read?
Answer: Its Potency is inconclusive: 0.631 µM [inhibitor, full curve, poor fit].

Question: `CCOCCc1nn2c(=O)cc(COC(=O)C3CCCCC3)nc2s1` was tested. Which Potency did it give?
Answer: Its Potency is “inactive”.

Question: With `COC(=O)c1ccc(OCC2c3cc(OC)c(OC)cc3CCN2C(=O)c2ccc(F)cc2)cc1` (configuration not stated) as the molecule, how does the Potency read?
Answer: The Potency was “inactive”.

Question: With `COc1ccc2nc(C)cc(N/N=C/c3cccc(OC)c3O)c2c1` as the molecule, how does the Potency read?
Answer: Its Potency is inconclusive: 35.5 µM [inhibitor, single point].

Question: For `O=C(CCc1nc2ccccc2s1)NCc1ccccc1F`, which Potency is on record?
Answer: Its Potency is “inactive”.

Question: `CC#Cc1cc2c(cc1O)CCC1C2CCC2(C)C(O)CCC12` (configuration not stated) was tested. Which Potency did it give?
Answer: The Potency was inconclusive: 2.24 µM [inhibitor, full curve].

Question: How did the Potency turn out when `COC(=O)c1ccccc1NC(=O)Cn1c(-c2nonc2N)nc2ccccc21` was run?
Answer: The Potency was inconclusive: 0.355 µM [inhibitor, full curve, poor fit].

Question: For `O=C1/C(=C/c2ccccc2[N+](=O)[O-])COc2ccccc21`, which Potency is on record?
Answer: The Potency was inconclusive: 3.55 µM [inhibitor, full curve, poor fit].

Question: With `COCCNc1nc(NCc2ccc(NC(C)=O)cc2)c2sc(-c3ccccc3)cc2n1` as the molecule, how does the Potency read?
Answer: Its Potency is inconclusive: 3.16 µM [inhibitor, partial curve, poor fit].

Question: With `CCOc1ccc(N2C(=O)CS/C2=C(\C(Cl)=C(Cl)Cl)[N+](=O)[O-])cc1` as the molecule, how does the Potency read?
Answer: Its Potency is inconclusive: 17.8 µM [inhibitor, partial curve, poor fit].

Question: `COc1ccc(CCCC(=O)NCc2ccccc2)cc1C` was tested. Which Potency did it give?
Answer: Its Potency is inconclusive: 7.08 µM [inhibitor, partial curve].

Question: For `COc1ccc(/C=C2/Sc3ccc(C(=O)NCCCN4CCOCC4)cc3NC2=O)cc1OC`, which Potency is on record?
Answer: Its Potency is inconclusive: 25.1 µM [inhibitor, single point].

Question: For `O=c1oc2c(CN3CCN(CCO)CC3)c(O)ccc2cc1-c1ccccc1`, which Potency is on record?
Answer: The Potency was “inactive”.

Question: Which Potency does the source give for `Cn1nnnc1Sc1ncnc2scc(-c3ccc4c(c3)OCO4)c12` here?
Answer: The Potency was inconclusive: 11.2 µM [inhibitor, single point].

Question: `Cc1ccc(NC(=O)c2sc3nc4c(cc3c2N)CN(Cc2ccccc2)CC4)cc1` was tested. Which Potency did it give?
Answer: Its Potency is inconclusive: 12.6 µM [inhibitor, single point].

Question: How did the Potency turn out when `CCOc1cc([N+](=O)[O-])cc2c1C(=O)Nc1ccccc1O2` was run?
Answer: The Potency was inconclusive: 35.5 µM [inhibitor, partial curve, poor fit].

Question: For `N#Cc1ccc(/C=C/C(=O)c2ccccc2)cc1`, which Potency is on record?
Answer: The Potency was inconclusive: 35.5 µM [inhibitor, single point].

Question: `COCCCNC(=O)c1cc(C(=O)c2c(-c3c(Cl)cccc3Cl)noc2C)c[nH]1` was tested. Which Potency did it give?
Answer: Its Potency is inconclusive: 35.5 µM [inhibitor, single point].

Question: Which Potency does the source give for `CCOC(=O)c1c(C)[nH]c(C)c1S(=O)(=O)N(C)CC(=O)Nc1ccc(C)cc1C` here?
Answer: The Potency was “inactive”.

Question: With `Cc1cc(C)c2oc(-c3cccc(NC(=O)COc4ccc([N+](=O)[O-])cc4)c3)nc2c1` as the molecule, how does the Potency read?
Answer: The Potency was “inactive”.

Question: `COc1cc(/C=C(\C#N)c2nc3ccccc3[nH]2)cc(OC)c1O` was tested. Which Potency did it give?
Answer: Its Potency is inconclusive: 2.82 µM [inhibitor, single point].

Question: `CCCc1ccc(-c2cc(C(=O)N/N=C/c3ccc([N+](=O)[O-])o3)c3ccccc3n2)cc1` was tested. Which Potency did it give?
Answer: The Potency was inconclusive: 3.55 µM [inhibitor, full curve, poor fit].

Question: How did the Potency turn out when `OC(COc1ccc(CNCCc2ccc(C(F)(F)F)cc2)cc1)CN1CCCCC1` (configuration not stated) was run?
Answer: Its Potency is “inactive”.

Question: How did the Potency turn out when `O=C(CCCl)Nc1nc2c(s1)CCc1ccccc1-2` was run?
Answer: The Potency was inconclusive: 2.51 µM [inhibitor, partial curve, poor fit].

Question: Which Potency does the source give for `COc1c(C)cc(C(O)c2ncc(-c3ccccc3F)[nH]2)cc1C` (configuration not stated) here?
Answer: The Potency was inconclusive: 35.5 µM [inhibitor, single point].

Question: `O=C(c1ccc(Cl)c([N+](=O)[O-])c1)N1CCN(c2ccccc2)CC1` was tested. Which Potency did it give?
Answer: The Potency was inconclusive: 35.5 µM [inhibitor, single point].

Question: With `Nc1c(C(=O)N/N=C/c2ccccc2Cl)oc2nc(-c3ccccc3)cc(-c3ccco3)c12` as the molecule, how does the Potency read?
Answer: Its Potency is inconclusive: 12.6 µM [inhibitor, partial curve, poor fit].

Question: For `Cc1ccc(-c2[nH]c(-c3ccc(C(=O)O)cc3)nc2-c2ccccc2)cc1`, which Potency is on record?
Answer: The Potency was inconclusive: 14.1 µM [inhibitor, single point].

Question: Which Potency does the source give for `Cc1ccc(OCC(=O)Nc2ccc3c(c2)OCO3)cc1C` here?
Answer: The Potency was “inactive”.

Question: Which Potency does the source give for `CCOC(=O)C1=C(c2ccccc2)NC(SCC)=C(C#N)C1c1cccnc1` (configuration not stated) here?
Answer: The Potency was “inactive”.

Question: For `COc1ccc(S(=O)(=O)NCCc2csc(-c3ccc(F)cc3)n2)cc1F`, which Potency is on record?
Answer: The Potency was “inactive”.

Question: `Fc1cccc(COc2ccccc2CNc2ccccc2)c1` was tested. Which Potency did it give?
Answer: The Potency was “inactive”.

Question: For `O=C(Nc1ncc2c(n1)-c1ccccc1CC2)c1cccc(Cl)c1`, which Potency is on record?
Answer: Its Potency is inconclusive: 3.16 µM [inhibitor, full curve].

Question: With `COc1cc(OC)c(OC)cc1/C=C1\CCC/C(=C\c2cc(OC)c(OC)cc2OC)C1=O` as the molecule, how does the Potency read?
Answer: Its Potency is inconclusive: 10 µM [inhibitor, partial curve, poor fit].

Question: `Cc1ccc(-c2c(CN3CCN(c4cccc(C(F)(F)F)c4)CC3)csc2C)cc1` was tested. Which Potency did it give?
Answer: Its Potency is “inactive”.

Question: Which Potency does the source give for `COc1cc(C2Oc3ccccc3C=C2[N+](=O)[O-])cc(OC)c1OC` (configuration not stated) here?
Answer: Its Potency is inconclusive: 7.94 µM [inhibitor, partial curve].

Question: `COc1cccc(C2C=C(c3ccc(C)c(C)c3)Nc3nnnn32)c1OC` (configuration not stated) was tested. Which Potency did it give?
Answer: Its Potency is inconclusive: 2.51 µM [inhibitor, full curve].

Question: For `Cc1oc2c(c(C)cc3oc(=O)c(CC(=O)NCCc4ccccc4)c(C)c32)c1C`, which Potency is on record?
Answer: Its Potency is “inactive”.

Question: Which Potency does the source give for `C1=CN2CC=Cc3cc(/C=C/c4ccnc5ccccc45)cc(c32)C1` here?
Answer: The Potency was inconclusive: 10 µM [inhibitor, partial curve].

Question: How did the Potency turn out when `COCCNc1nc(Nc2ccc(C)cc2C)c2sccc2n1` was run?
Answer: The Potency was inconclusive: 1.78 µM [inhibitor, full curve, poor fit].

Question: With `Cc1cccc2cc(C#N)c(SCC(=O)N3CC(=O)Nc4ccccc43)nc12` as the molecule, how does the Potency read?
Answer: The Potency was inconclusive: 3.55 µM [inhibitor, partial curve, poor fit].

Question: Which Potency does the source give for `Cc1ccc(C)c(NC(=S)NCCc2ccc(F)cc2)c1` here?
Answer: The Potency was “inactive”.

Question: `COc1cccc(C(=O)Nc2ccc(N3CCCC3)cc2)c1` was tested. Which Potency did it give?
Answer: The Potency was inconclusive: 6.31 µM [inhibitor, partial curve, poor fit].

Question: Which Potency does the source give for `Cc1cc(=O)[nH]c2ccc(O)cc12` here?
Answer: The Potency was “inactive”.

Question: How did the Potency turn out when `CC1(C(=O)NCCC(F)(F)F)Cc2c(-c3cccc(C(F)(F)F)c3)ccnc2O1` (configuration not stated) was run?
Answer: Its Potency is inconclusive: 6.31 µM [inhibitor, full curve].

Question: For `COc1ccc(C2COc3cc(O)ccc3C2)c(OC)c1O` (configuration not stated), which Potency is on record?
Answer: The Potency was inconclusive: 15.8 µM [inhibitor, single point].

Question: For `COc1cccc(C=NNc2ccc([N+](=O)[O-])cn2)c1OC`, which Potency is on record?
Answer: The Potency was “inactive”.

Question: For `C/C(CC(=O)Nc1cc(C)ccn1)=N\NC(=O)c1cccc(F)c1`, which Potency is on record?
Answer: Its Potency is inconclusive: 22.4 µM [inhibitor, single point].

Question: For `CCCCCS(=O)(=O)c1oc(-c2cccs2)nc1S(=O)(=O)c1ccc(C)cc1`, which Potency is on record?
Answer: The Potency was inconclusive: 11.2 µM [inhibitor, partial curve, poor fit].

Question: Which Potency does the source give for `O=C1CSC(c2ccc(Cl)c(Cl)c2)N1c1nccs1` (configuration not stated) here?
Answer: Its Potency is inconclusive: 20 µM [inhibitor, partial curve].

Question: For `O=C(Nc1ccc(-c2cn3ccccc3n2)cc1)c1cccs1`, which Potency is on record?
Answer: Its Potency is inconclusive: 35.5 µM [inhibitor, single point].

Question: With `CC1CC/C(=C\c2ccc3c(c2)OCO3)C(=O)/C1=C/c1ccc2c(c1)OCO2` (configuration not stated) as the molecule, how does the Potency read?
Answer: The Potency was inconclusive: 22.4 µM [inhibitor, single point].

Question: `NC(=O)c1ccsc1NC(=O)COC(=O)CCOc1ccccc1` was tested. Which Potency did it give?
Answer: The Potency was inconclusive: 1.12 µM [inhibitor, full curve, poor fit].

Question: Which Potency does the source give for `CS(=O)(=O)N(CC(=O)N1CCN(c2ccccc2)CC1)c1cccc(Br)c1` here?
Answer: The Potency was “inactive”.

Question: For `O=C1NC[C@H](Cc2ccccc2)N(C[C@@H]2CCCN2C[C@H](Cc2ccccc2)N2C[C@H](Cc3ccccc3)N(CC3CCCCC3)C(=O)C2=O)C1=O`, which Potency is on record?
Answer: The Potency was inconclusive: 22.4 µM [inhibitor, single point].

Question: For `O=C(Nc1ccc(N2CCN(Cc3ccccc3F)CC2)cc1)c1ccc([N+](=O)[O-])o1`, which Potency is on record?
Answer: The Potency was inconclusive: 6.31 µM [inhibitor, partial curve, poor fit].

Question: With `Cc1cccc(C(=O)Nc2nc(C)c(C(=O)Nc3ccc4c(c3)CCC4)s2)c1` as the molecule, how does the Potency read?
Answer: The Potency was inconclusive: 5.62 µM [inhibitor, full curve].

Question: With `O=C1C=CC(=Nc2cccc3c2C(=O)c2ccccc2-3)O1` as the molecule, how does the Potency read?
Answer: Its Potency is inconclusive: 15.8 µM [inhibitor, partial curve, poor fit].
